Screen size: about 310,000 compounds; about 2,200 (0.71%) showed an effect of 50% or more. The effect is printed as a negative number. This is one part of the list.
These compounds were tested against human ether-à-go-go-related gene (hERG) potassium channel (human, UniProt Q12809) (assay: primary screen, population patch clamp on CHO cells stably expressing hERG).
Sequence of human ether-à-go-go-related gene (hERG) potassium channel (Q12809 whole entry, looked up): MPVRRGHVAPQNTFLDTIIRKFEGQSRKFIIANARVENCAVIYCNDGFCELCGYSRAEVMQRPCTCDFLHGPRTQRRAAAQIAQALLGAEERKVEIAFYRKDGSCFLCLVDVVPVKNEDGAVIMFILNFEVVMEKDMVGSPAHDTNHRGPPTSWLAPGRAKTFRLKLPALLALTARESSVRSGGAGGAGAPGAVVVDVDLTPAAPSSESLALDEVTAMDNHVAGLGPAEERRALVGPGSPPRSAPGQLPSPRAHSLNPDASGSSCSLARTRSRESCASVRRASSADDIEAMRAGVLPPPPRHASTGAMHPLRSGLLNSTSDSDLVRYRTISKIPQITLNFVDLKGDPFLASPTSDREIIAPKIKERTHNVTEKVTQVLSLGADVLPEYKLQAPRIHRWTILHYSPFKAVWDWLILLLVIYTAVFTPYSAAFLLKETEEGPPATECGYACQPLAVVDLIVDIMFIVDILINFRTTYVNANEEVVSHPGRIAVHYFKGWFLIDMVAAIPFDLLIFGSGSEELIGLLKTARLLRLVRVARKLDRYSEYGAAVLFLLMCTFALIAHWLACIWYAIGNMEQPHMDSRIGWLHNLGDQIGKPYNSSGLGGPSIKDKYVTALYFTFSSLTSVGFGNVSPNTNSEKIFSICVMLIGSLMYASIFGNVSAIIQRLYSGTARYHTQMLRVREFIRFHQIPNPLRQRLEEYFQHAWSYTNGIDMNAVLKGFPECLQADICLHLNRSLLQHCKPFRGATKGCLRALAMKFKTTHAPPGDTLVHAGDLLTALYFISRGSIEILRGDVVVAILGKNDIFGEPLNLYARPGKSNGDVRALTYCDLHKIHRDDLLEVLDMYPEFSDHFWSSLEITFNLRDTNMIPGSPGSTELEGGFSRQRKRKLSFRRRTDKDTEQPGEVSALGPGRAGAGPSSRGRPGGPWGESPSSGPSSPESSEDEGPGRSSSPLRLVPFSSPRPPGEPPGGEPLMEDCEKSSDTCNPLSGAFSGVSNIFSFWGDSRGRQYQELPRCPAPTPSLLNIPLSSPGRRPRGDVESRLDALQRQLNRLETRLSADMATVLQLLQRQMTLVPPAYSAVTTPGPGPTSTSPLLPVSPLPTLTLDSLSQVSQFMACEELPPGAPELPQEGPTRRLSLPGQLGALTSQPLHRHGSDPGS

SMILES	hERG current change (%, negative = inhibition) at 1uM [%]
Cc1cc2c(=O)n(C)c(SCC(=O)NC3CCCC3)nc2s1	2.81
COC(=O)CSc1nc2c(c(=O)n(C)c(=O)n2C)n1CCC(C)C	2.4
CN1CCC(N(C)S(=O)(=O)c2ccc(C(C)(C)C)cc2)CC1.Cl	2.58
c1cc(CCCc2ccncc2)ccn1	1.58
Cc1ccccc1CN1CCN(c2ccc(Cl)cc2)CC1	9.61
Cc1cc(C)n(C(=O)c2cccc(S(=O)(=O)N3CCOCC3)c2)n1	12.4
CN1CCN(C(=O)/C(=C/c2cccs2)NC(=O)c2ccco2)CC1	-62.1
Oc1[nH]c2ccccc2c1/C=N/c1nccs1	12.2
O=S(=O)(c1ccc(S(=O)(=O)N2CCCC2)cc1)N1CCCCCC1	6.28
COc1ccc(N2CCN(C(=O)COc3ccccc3)CC2)cc1	0.864
Cl.O=S(=O)(c1ccccc1)N(CC(O)CN1CCCCC1)c1ccccc1 (stereo not shown)	-21
O=C(c1nc2ccc(Cl)cn2c1CNCCc1cnccn1)N1CCCCCCC1	7.59
Cc1ccc(S(=O)(=O)c2nnn3c2nc(Nc2cccc(C)c2)c2ccccc23)cc1	18
S=C(Nc1ccc(Cl)cc1Cl)Nc1ccccc1Oc1ccccc1	12.4
CN1CCN(CCC(=O)N/N=C/c2cc([N+](=O)[O-])ccc2O)CC1	-0.0797
CC(C)(C)OC(=O)NCc1ccc(CNC(=O)c2[nH]cnc2C(=O)NC2CCN(C(=O)OC(C)(C)C)CC2)cc1	9.26
Cc1ccccc1NC(=O)c1ccc(Cl)c(NC(=O)c2ccncc2)c1	8.5
O=C(Nc1nc(-c2ccccn2)cs1)c1ccco1	4.9
CSCC[C@H](NC(=O)NCCC1=CCCCC1)C(=O)O	-0.163
COc1ccc2nc(NC(=O)CS(=O)(=O)c3ccc(C)cc3)sc2c1	14.1
COC(=O)c1cc2sccc2n1Cc1nc(-c2ccc(OC)cc2)oc1C	-2.21
COc1cccc(NC(=S)NNC(=O)CCn2cc([N+](=O)[O-])cn2)c1	7.92

SMILES	hERG current change (%, negative = inhibition) at 1uM [%]
CC1(C)Cc2ccccc2C(NNC(=O)c2ccncc2)=N1	13.2
CC(C)OC(=O)CSc1nnc(-c2ccccc2)n1N	5.28
COC(=O)CN(c1cccc(F)c1)S(C)(=O)=O	-7.37
CCN(CC)c1nc2c(c(=O)n(C)c(=O)n2C)n1CC(=O)c1ccccc1	1.7
COc1ccc2[nH]c(=O)c(CN(CCCN(C)C)C(=O)Nc3ccc(F)cc3)cc2c1	-43.5
COc1ccc(Oc2cn[nH]c2-c2ccc(O)cc2O)cc1	4.62
COc1cccc(CC2(CO)CCCN(Cc3ccc4c(c3)OCCO4)C2)c1 (stereo not shown)	-5.09
COC(=O)c1cc2n(n1)CCN(Cc1cccc(OC)c1)C2=O	9.63
COc1ccccc1C(=O)NC(=O)COC(=O)c1cc[n+]([O-])cc1	7.51
CCN(Cc1ccccc1)S(=O)(=O)c1cc2[nH]c(=O)c(=O)[nH]c2cc1C	13.1
O=C1CCC([N+](=O)[O-])C(c2ccc(Cl)c([N+](=O)[O-])c2)N1 (stereo not shown)	8.47
CCc1ccccc1N(CC(=O)NC1CCCCC1)C(=O)CCC(=O)Nc1ccccn1	12.3
CCCCOc1ccc(N2C(=O)CC(NCc3ccncc3)C2=O)cc1 (stereo not shown)	0.866
NS(=O)(=O)c1ccc(CCNC(=O)CNC(=O)c2ccc(F)cc2)cc1	21.7
CCCCCCCCn1cnc2c(N)c(C)c(C)cc21	15.2
Cc1ccccc1C(=O)N/N=C/c1ccncc1	21.7
O=C(OCC(=O)N1CCN(c2ccccc2)CC1)c1ccccn1	2.77
COc1ccccc1C(=O)NC1CCN(C(=S)NCCc2ccccc2)CC1	3.17
CCC(C)(C)C1CCc2[nH]nc(C(=O)NC(C)C)c2C1 (stereo not shown)	17.5
CN(CC(=O)NCCc1ccccc1)S(=O)(=O)c1ccc(Br)s1	9.66
COCc1cc(=O)[nH]c(Sc2c(-c3ccccc3)c3ccc(Cl)cc3[nH]c2=O)n1	13.9
CCCCC/C(=N\O)c1c[nH]c2ccccc12	9.08

SMILES	hERG current change (%, negative = inhibition) at 1uM [%]
CCN(CC)CCC(c1cc(OC)c(OC)c(OC)c1)c1c(OC)cc(OC)c2c(-c3ccccc3)cc(=O)oc12 (stereo not shown)	9.21
Nc1nc(NCc2ccccc2)nc(Nc2cccc(F)c2)c1[N+](=O)[O-]	14.2
O=C(CCNc1ccc(F)cc1)c1ccco1	-1.63
Cc1ccccc1S(=O)(=O)Nc1ncnc2scc(-c3ccccc3)c12	-1.91
O=C(CCN1C(=O)c2ccccc2C1=O)C1=NN[C@@H]2C(=O)N(c3ccc4c(c3)OCO4)C(=O)[C@H]12	4.83
Cc1cc(OC(C)C(=O)NCCCn2ccnc2)c2c(C)cc(=O)oc2c1 (stereo not shown)	9.26
CCCNC(=O)C(=O)NCc1ccccn1	0.253
COc1ccc(CCNC(=O)c2c[nH]c3ccccc3c2=O)cc1OC	3.65
CC(C)(C)c1cc(=O)n2c(nc3ccccc32)[nH]1	13.8
CCOC(=O)c1ccc(NC(=O)CCC(=O)OC)cc1	12.6
CC(NS(=O)(=O)c1ccc(OCC(=O)Nc2cccc([N+](=O)[O-])c2)cc1)c1ccccc1 (stereo not shown)	10.9
O=C(c1ccc(COc2ccccc2Br)cc1)N1CCCCCC1	6.28
O=C(Oc1ccccc1C(=O)Nc1ccccc1)c1ccc(Br)c([N+](=O)[O-])c1	8.43
COc1ccc(C[C@@H]2CN3C(=NC[C@@H]3C)N2CCNC(=O)c2ccc(C)c(Br)c2)cc1	-64.9
CC(C)C(=O)Nc1cccc(NC(=S)NC(=O)c2cccs2)c1	1.16
Cc1nc(C(=O)NCC(=O)c2ccccc2)c(C(F)(F)F)o1	13.1
Cc1ccc(N2CC(C(=O)Nc3nc4ccc(S(C)(=O)=O)cc4s3)CC2=O)cc1C (stereo not shown)	11.1
COc1ccc(OC)c(/C=N/NC(=O)c2ccc[n+](CC(=O)c3ccccc3)c2)c1	11
Cc1ccc(S(=O)(=O)c2cn(C)c3cc(N4CCN(C)CC4)c(F)cc3c2=O)c(C)c1	14
Cc1ccc(C)c(NS(=O)(=O)c2ccc3c(c2)NC(=O)CCS3)c1	7.34
CC1CCCC(C)N1C(=O)CSc1nnc(NC(=O)c2cccs2)s1 (stereo not shown)	18.3
COc1cc(Cl)c(C)cc1NC(=O)COc1ccccc1[N+](=O)[O-]	-2.79

SMILES	hERG current change (%, negative = inhibition) at 1uM [%]
O=S(=O)(Nc1nc2ccc(S(=O)(=O)N3CCCC3)cc2s1)c1ccc(F)cc1	-8.34
COc1ccccc1-c1cc(C(=O)N2CCCc3ccccc32)no1	6.64
O=C(CNC(=O)c1ccco1)NCC(=O)OCc1cccc(Cl)c1	-2.91
CCCCc1nnc(NC(=O)C2CC(=O)N(c3ccc(C)cc3)C2)s1 (stereo not shown)	12.8
O=C(Cc1cnn(-c2ccccc2)c1)c1ccc(O)c(O)c1O	0.139
Cc1ccc(C(=O)Nc2ccccc2C(=O)N2CCN(c3ccccc3)CC2)cc1	15.5
Cc1cccc(C)c1NC(=O)Cc1cccs1	12.6
O=C(CSCc1ccc([N+](=O)[O-])cc1)NC1CCCCCC1	-4.32
Clc1ccc2nc(CSc3nncn3-c3ccccc3)cn2c1	11.3
COc1ccc(OC)c(S(=O)(=O)NCc2cn3cccc(C)c3n2)c1	9.59
CN(CC(=O)NCC1CCCCC1)CC(=O)Nc1ccc(F)cc1	-1.41
CC(c1ccco1)N(C(=O)c1ccccc1NS(=O)(=O)c1cccc([N+](=O)[O-])c1)c1ccccn1.Cl (stereo not shown)	5.36
Cc1[nH]c2ccccc2c1/C=N/NC(=O)C1CC1(c1ccccc1)c1ccccc1 (stereo not shown)	3.97
COc1ccccc1OCCC(=O)NCc1ccc2c(c1)OCO2	6.42
O=C(/C=C/c1ccc(F)cc1)NCCC1=CCCCC1	-1.02
CCc1ccc(NS(=O)(=O)c2cc3c4c(c2)CCN4C(=O)CC3)cc1	3.86
CC(C)COP(=O)(c1ccc(N(C)C)cc1)C(O)c1ccccc1 (stereo not shown)	19.4
CC(=O)N1C(=O)/C(=C2\SC(=S)N(NC(=O)c3ccc(O)cc3)C2=O)c2ccccc21	6.63
COc1ccc(S(=O)(=O)N(C)CC(=O)NCc2ccc3c(c2)OCO3)cc1	7.58
CC(C)c1ccc(Nc2nc(Cl)nc(NCCO)n2)cc1	7.67
COc1cccc(N2CCN(CC(=O)Nc3ccc(SC(F)F)cc3)CC2)c1	-27.7
Cl.Oc1cccc(C(O)CNCc2ccc(OCc3ccc(Cl)cc3Cl)cc2)c1 (stereo not shown)	14.8
